Measurements reported in the supplement of paper PMC11417369.
The other results are listed elsewhere or left out.

tested on: PfAP2-HC AP2 domain (GST-tagged); experiment: gcPBM binding intensity (ln(normalized median fluorescence intensity)); higher = stronger DNA binding
Outline: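 Binding intensity is defined as the maximum Masliner-normalised natural-log median intensity across replicate spots for either probe orientation. It was measured on an Agilent 4 × 180k array of primer-extended double-stranded 36-bp intergenic genomic probes and negative controls, to which GST-tagged P. falciparum DNA-binding domains made in E. coli were applied for 1 h in 1× PBS with 1% milk, 0.2 mg/ml BSA, 0.5% salmon testes DNA and 0.03% Triton X-100. Detection was by Alexa488 anti-GST antibody and scanning at 488 nm.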

Sequence | gcPBM binding intensity (ln)
AAGGAAGATATATACACACATACAAATATATATATA [CACACA_site2181] | 9.97
TTGTGTTTTATTATTTTATTATTACTATTATAATGT [GTGCAC_negctrl_site484] | 9.87
ATAAAACATAAATACATACACACATAATATATATTA [CACACA_site110] | 9.99
TAAAAATGGGTATGTACACACTTTATTTTTAATACA [CACACA_site5404] | 9.72
TATAAACATAAATATACACACAAACATATATGTATT [CACACA_site8324] | 10
CGTTTCCCCAATGGTTGTACAATATATATATATATA [XGTACX_site8641] | 9.7
AGACATATAATATATACACACATATATATATATATA [CACACA_site1066] | 9.74
TTATTTATAATGTTGTGTACATATATGAATATACCA [XGTACX_site3111] | 9.57
AAGAAAAAATAAAGCACACAAATATTTTAAAAACAC [CACACA_site3325] | 9.96
TTTTTTCAATTGGAAATTATTTTACAATGAAGGGTA [XGTACX_negctrl_site469] | 9.22
GATATATATACATGTGTGCACCATGCAACTTGTTTT | 10.2
TATTTTACGTATTGTTGTACTTGAAACAAATATACA [XGTACX_site8778] | 9.54
ATATTGGAGCACAACACACACAAGTATATATATGGA [CACACA_site1546] | 10.1
AAATAGCCAAAAATCATGCACACCTAAAAAAAAAAA [CACACA_site2572] | 9.77
TATATATATATATATTGTACATATATTATTATATAT [XGTACX_site7447] | 9.59
AATTCTCTTAATAAATAAACACAAATAAATAATAAA [GTGCAC_negctrl_site499] | 9.51
CACATACAGACATACACACACATATATATTAATATA [CACACA_site546] | 10.2
CATACATACAAACACACACACACACCGATATATATA [CACACA_site8952] | 10.7
ATCAACATCTAACATTGTACATGTGATGTGTAAAAG [XGTACX_site547] | 9.78
ATATTTGCCCAAGATAGTACATATATATATATATAT [XGTACX_site7756] | 9.8
TATATAATAAAAAAAAGTACTTGGACAATATTATTT [XGTACX_site2802] | 9.63
ATCAAAATATTTATATGTACATATTAAAAATATAGA [XGTACX_site725] | 9.63

Sequence | gcPBM binding intensity (ln)
TTAATTTACATGAACTGTACATAACATTTTTTTAAA [XGTACX_site4672] | 9.34
TCAGTAATACTTGAATGTACTTATATTGTTTGTTTG [XGTACX_site6449] | 9.82
CCTATATTAAAACAAGCACACAATCGCATAATATCC [CACACA_site9052] | 10.2
ATTATATATCCCTATTCACACATGTATTATATAAAT [CACACA_site5486] | 9.89
TAATAAAGTGAATAATGTACATTTTATTTATTATAT [XGTACX_site6614] | 9.64
GAAAAATTAAAAATAACACACACATATATATATTTA [CACACA_site8896] | 10.3
ATTTATTTTATATGTTGTACAAACATTTTAAAACAT [XGTACX_site6919] | 9.51
TCTTTTTCTTGACGAGTGCAAAAATTGTGTTTGAAA | 9.44
ATAAATAAATAAATAAATAAATAAATAAATATATAT [CACACA_negctrl_site1728] | 9.74
CTAATATCTGTATGCACACACAATAAATACATATTT [CACACA_site5797] | 9.97
AATGCCTTGTTGAGGTGTACTGAATGTTATTTTAAT [XGTACX_site3255] | 9.65
TTTTTTTAAAGAATTATCATAAAATGATTGCATCAT [XGTACX_negctrl_site141] | 9.34
TTAACATATTTGTTAGTGCATTTTGATATTACACAT [GTGCAC_site9978] | 9.81
AAAAAAATTAAATGTACACACACCTTAAACAATGTC [CACACA_site1855] | 10.1
CAAAAACGGAAGTGGTGTACCGATATTATATAAACA [XGTACX_site4962] | 9.77
GGAGAATAGTGGAAAACACACACGTTTGAGATATGG [CACACA_site1168] | 9.91
TTTTTTTTTTTTACCTGTACATGTCAGCAAACTTTT [XGTACX_site1171] | 9.73
AACATTATAAGACACACACACACATATATATATATA [CACACA_site8259] | 10.8
AGGTAGTTCTGTATCACACACATATATATATATATA [CACACA_site2214] | 10.1
ACTCTTAAAATGTATTGTACATAATTTTTACAAGGG [XGTACX_site6611] | 9.5
AAAAAAAATATATAAACACACATATTTATATACTCA [CACACA_site4984] | 9.73
ACATATAATAAAAAATGTACACACATAAGAAAATTT [XGTACX_site6153] | 10.3
